We go through 45 compounds from publication PMC4336329 (PLoS ONE, 2015).

Each structure is given as a SMILES string. Out of some 310,000 compounds screened, about 14,000 (4.5%) showed an effect of 50% or more. The effect is printed as a negative number. Some of the results follow.
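Note: peak tail current of the secondary pulse compared with the same well before compound.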

The target of this assay is human ether-à-go-go-related gene (hERG) potassium channel (human, UniProt Q12809). The assay is described as follows: primary screen, population patch clamp on CHO cells stably expressing hERG.
human ether-à-go-go-related gene (hERG) potassium channel, sequence (Q12809 whole entry, looked up): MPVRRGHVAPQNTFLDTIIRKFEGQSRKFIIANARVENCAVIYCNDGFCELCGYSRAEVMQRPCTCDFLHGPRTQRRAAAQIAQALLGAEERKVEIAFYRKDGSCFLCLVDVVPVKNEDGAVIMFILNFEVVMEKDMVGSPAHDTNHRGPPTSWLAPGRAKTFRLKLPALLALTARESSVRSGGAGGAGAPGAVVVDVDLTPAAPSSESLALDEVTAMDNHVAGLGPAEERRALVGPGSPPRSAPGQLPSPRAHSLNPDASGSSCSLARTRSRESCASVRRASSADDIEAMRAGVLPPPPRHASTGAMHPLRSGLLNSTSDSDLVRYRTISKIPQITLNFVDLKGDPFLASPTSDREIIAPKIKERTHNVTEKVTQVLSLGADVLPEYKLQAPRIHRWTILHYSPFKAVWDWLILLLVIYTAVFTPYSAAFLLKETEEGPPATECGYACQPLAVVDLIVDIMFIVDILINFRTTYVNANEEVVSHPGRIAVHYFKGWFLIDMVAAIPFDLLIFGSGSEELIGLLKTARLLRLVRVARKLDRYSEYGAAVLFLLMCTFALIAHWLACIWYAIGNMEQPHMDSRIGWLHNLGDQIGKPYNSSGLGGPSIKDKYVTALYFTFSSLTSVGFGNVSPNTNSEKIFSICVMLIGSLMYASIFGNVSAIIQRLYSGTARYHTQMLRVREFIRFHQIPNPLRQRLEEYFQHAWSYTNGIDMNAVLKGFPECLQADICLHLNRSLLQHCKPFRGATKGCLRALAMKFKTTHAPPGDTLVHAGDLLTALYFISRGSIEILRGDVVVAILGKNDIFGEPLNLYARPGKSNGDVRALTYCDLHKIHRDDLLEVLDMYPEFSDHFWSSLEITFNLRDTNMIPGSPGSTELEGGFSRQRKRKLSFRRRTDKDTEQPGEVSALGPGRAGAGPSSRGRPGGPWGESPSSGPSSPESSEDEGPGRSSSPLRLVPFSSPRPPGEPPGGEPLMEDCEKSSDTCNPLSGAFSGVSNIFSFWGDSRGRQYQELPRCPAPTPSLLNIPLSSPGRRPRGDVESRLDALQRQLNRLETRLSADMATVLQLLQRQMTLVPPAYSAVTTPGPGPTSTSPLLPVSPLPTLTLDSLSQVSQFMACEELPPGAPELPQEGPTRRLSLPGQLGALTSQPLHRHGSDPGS
`CCOc1ccc(Oc2c(/C=N/NC(=O)COc3ccccc3OC)c(C)nn2-c2ccccc2)cc1`: the “hERG current change (%, negative = inhibition) at 10uM” value was found to be 17.6%.
Turning to `S=c1nccc(-c2cccs2)[nH]1`, the “hERG current change (%, negative = inhibition) at 10uM” value is 8.78%.
The value for `O=C(CSc1nnc2c(Cl)cc(Cl)cn12)NC1CCS(=O)(=O)C1` (stereo not drawn) was -5.28%.
The value for `O=C(O)c1[nH]c2ccccc2c1NS(=O)(=O)Cc1ccccc1` was -2.83%; that for `NS(=O)(=O)c1ccc(NC(=O)NC2CC(=O)N(c3ccc4c(c3)OCCO4)C2)cc1` (stereo not drawn) was 2.12%.
Consider `CCOC(CC(=O)NNC(=O)c1c(-c2c(Cl)cccc2Cl)noc1C)OCC`, for which the “hERG current change (%, negative = inhibition) at 10uM” value stood at 14.3%.
Consider `O=P(Nc1ccccc1)(Nc1ccccc1)Oc1cccc(Cl)c1`, for which the “hERG current change (%, negative = inhibition) at 10uM” value is -5.63%.
In the case of `COC(=O)c1ccc(Nc2ncnc3c2cnn3-c2cccc(C)c2)cc1`, the “hERG current change (%, negative = inhibition) at 10uM” value is 9.28%.
As for `O=C(NCC1CCCN(Cc2ccc3nonc3c2)C1)c1cccc(C(F)(F)F)c1` (stereo not drawn), the “hERG current change (%, negative = inhibition) at 10uM” value is -61.5%.
`N=c1c2c3c(sc2nc2n1CCC2)CCCC3`: the “hERG current change (%, negative = inhibition) at 10uM” value is listed as -28.9%.
For `CCO[C@@H]1OC(C(=O)N2CCN(C)CC2)=C[C@H](c2ccc(C(F)(F)F)cc2)[C@H]1CCCO`, the “hERG current change (%, negative = inhibition) at 10uM” value was -1.51%.
The value for `CN1CCN(S(=O)(=O)c2cccc(C(=O)NCc3ccccc3Cl)c2)CC1` was -13.8%.
Turning to `COc1ccccc1CNC(=O)CNC(=O)c1sc2ccccc2c1Cl`, the “hERG current change (%, negative = inhibition) at 10uM” value was 4.96%.
With `O=C(NCCCn1ccnc1)C(Cc1ccc([N+](=O)[O-])cc1)N1C(=O)c2ccccc2C1=O` (stereo not drawn), the “hERG current change (%, negative = inhibition) at 10uM” value is -62.3%.
Take `COc1ccccc1N(CC(=O)Nc1cc(C)on1)S(=O)(=O)c1ccc(Cl)cc1`: the “hERG current change (%, negative = inhibition) at 10uM” value is -10.9%.
For `COc1ccc(S(=O)(=O)N2c3ccc(F)cc3CCC2C)cc1` (stereo not drawn), the “hERG current change (%, negative = inhibition) at 10uM” value was -9.99%.
In the case of `COCCCNc1ccnc2c(Cl)cccc12`, the “hERG current change (%, negative = inhibition) at 10uM” value is -58.5%.
As to `CCC(C)Sc1nc2c(c(=O)[nH]c(=O)n2C)n1C` (stereo not drawn), the “hERG current change (%, negative = inhibition) at 10uM” value is -4.04%.
Then `CCC(C)Nc1nnnc2c1sc1nc3c(cc12)COC(C)(C)C3` (stereo not drawn), with -6.79%; and `CCOc1ccc(NC(=O)CN(C)C(=O)c2ccc(N3CCCCCC3)c([N+](=O)[O-])c2)cc1OCC`, with 3.4%.
For `COc1cccc(C(=O)Oc2ccc(/C=N/NC(=O)c3ccncc3)cc2OC)c1`, the “hERG current change (%, negative = inhibition) at 10uM” value stood at 3.58%.
Take `CC(=O)Nc1cccc(/C(C)=N/NS(=O)(=O)c2ccccc2)c1`: the “hERG current change (%, negative = inhibition) at 10uM” value came out at 9.2%.
For the compound `CC(C)(C)CN1CCNC(=O)C1CC(=O)NCc1cccc(-n2cccn2)c1` (stereo not drawn), the “hERG current change (%, negative = inhibition) at 10uM” value is 11%.
The value for `COc1ccc(C(=O)Sc2ccc(C)cc2)cc1OC` was 20.2%.
`Cc1scc(C(=O)N/N=C/c2ccc(OC(C)C)cc2)c1C`: the “hERG current change (%, negative = inhibition) at 10uM” value is on record as 11.6%.
Then `Cc1cc(C)n(C(=O)CNC(=O)C2COc3ccccc3O2)n1` (stereo not drawn), with 14.5%.
Then `COc1ccc(OCC(O)CN2CCN(CC(O)COc3ccc(OC)cc3)CC2)cc1` (stereo not drawn), with -47.5%.
As to `CN1C(=O)C(c2ccc([N+](=O)[O-])cc2[N+](=O)[O-])C(=O)N(C)C1=O`, the “hERG current change (%, negative = inhibition) at 10uM” value was determined as 19.8%.
Turning to `CCc1cc(=O)oc2cc(C)cc(OC(C)C(=O)NCc3ccncc3)c12` (stereo not drawn), the “hERG current change (%, negative = inhibition) at 10uM” value is -56.8%.
Take `COc1ccc(-c2csc3ncnc(Oc4cccc5ccc(C)nc45)c23)cc1`: the “hERG current change (%, negative = inhibition) at 10uM” value is -6.38%.
Take `Cc1ccc(C(=O)NC(=S)Nc2cccc(NC(=O)c3ccccc3)c2)cc1[N+](=O)[O-]`: the “hERG current change (%, negative = inhibition) at 10uM” value is -5.88%.
With `Cc1ccc(S(=O)(=O)N2CCC(C(=O)NCC(C)(C)N3CCOCC3)CC2)c(C)c1`, the “hERG current change (%, negative = inhibition) at 10uM” value is -36.1%.
On to `CCOC(=O)c1cccc([P+](=O)O)c1`, for which the “hERG current change (%, negative = inhibition) at 10uM” value came to 8.14%.
On to `Cc1ccc(N2C(=O)NC(=O)/C(=C\c3ccsc3)C2=O)cc1C`, for which the “hERG current change (%, negative = inhibition) at 10uM” value is 6.33%.
As to `COc1ccc(NS(=O)(=O)c2cc3c4c(c2)C(C)C(=O)N4CCC3)cc1` (stereo not drawn), the “hERG current change (%, negative = inhibition) at 10uM” value is given as 10.3%.
Then `Oc1cccc(/C=N/Nc2ccc(Cl)nn2)c1`, with -19%; and `COc1ccc(-n2c(-c3ccc(Cl)cc3Cl)n[nH]c2=S)c(OC)c1`, with 15%.
Turning to `CC(=O)NC1CC2CCCC(C1)N2CC(=O)NCc1ccc(F)cc1` (stereo not drawn), the “hERG current change (%, negative = inhibition) at 10uM” value is -0.00062%.
For `COc1cc(NS(=O)(=O)c2ccc(NC(=O)CSC3=NCCS3)cc2)nc(OC)n1`, the “hERG current change (%, negative = inhibition) at 10uM” value is listed as 15.1%.
For `CCc1c(C(=O)NNC(=O)Nc2ccc3c(c2)OCO3)csc1C`, the “hERG current change (%, negative = inhibition) at 10uM” value was 18.2%.
As for `CCc1nc(SCC(=O)Nc2ccc(Br)cn2)n[nH]1`, the “hERG current change (%, negative = inhibition) at 10uM” value was determined as 13.3%.
Turning to `Cc1ccc(NC(=O)CSCc2n[nH]c(=O)[nH]2)c(Br)c1`, the “hERG current change (%, negative = inhibition) at 10uM” value came out at 3.22%.
As for `COCc1cc(C)nc(SCC(=O)Nc2ccc3c(c2)OCCO3)c1C#N`, the “hERG current change (%, negative = inhibition) at 10uM” value is 13.4%.
As for `CNC(=O)/C(C#N)=C/c1c(N2CCCCCC2)nc2ccccn2c1=O`, the “hERG current change (%, negative = inhibition) at 10uM” value is given as 10.2%.
Regarding `Cc1nc2oc3ccccc3c(=O)c2c(=O)n1Cc1ccccc1`, the “hERG current change (%, negative = inhibition) at 10uM” value is -32.2%.
